# Results published in PubChem BioAssay AID1745853 (National Center for Advancing Translational Sciences (NCATS), 2022).
# Where “and” joins values, the source holds several entries; their conditions need not be identical. Equal values may be shown once. The list shows a part of the results. Further columns of the screen follow, without active or inactive calls.
# Legend:
# Experiment in all cases: Primary Screen for Target Class Profiling of Small Molecule Inhibitors of Methyltransferases
# [1] = molecular target: Glycine N-methyltransferase (Homo sapiens) (UniProt Q14749); conditions: purified enzyme, MTase-Glo SAH luminescence; measured here: GNMT inhibition; at 40 µM; stronger effect = lower value
# How it was run: (§1)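 Each enzyme was assayed with SAM and its substrate. SAH formation detected by MTase-Glo luminescence; single-point 40 uM screen[…].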
# [2] = molecular target: Guanidinoacetate N-methyltransferase (Homo sapiens) (UniProt Q14353); conditions: purified enzyme, MTase-Glo SAH luminescence; measured here: GAMT inhibition; at 40 µM; stronger effect = lower value
# How it was run: as §1
# [3] = molecular target: Histamine N-methyltransferase (Homo sapiens) (UniProt P50135); conditions: purified enzyme, MTase-Glo SAH luminescence; measured here: HNMT inhibition; at 40 µM; stronger effect = lower value
# How it was run: as §1
# [4] = molecular target: Nicotinamide N-methyltransferase (Homo sapiens) (UniProt P40261); conditions: purified enzyme, MTase-Glo SAH luminescence; measured here: NNMT inhibition; at 40 µM; stronger effect = lower value
# How it was run: as §1
# [5] = molecular target: Phenylethanolamine N-methyltransferase (Homo sapiens) (UniProt P11086); conditions: purified enzyme, MTase-Glo SAH luminescence; measured here: PNMT inhibition; at 40 µM; stronger effect = lower value
# How it was run: as §1
# % is set by controls: 0 for no effect and ±100 for the full control effect.
Structure (SMILES),"activity change, negative = inhibition [1] [%]","activity change, negative = inhibition [2]","activity change, negative = inhibition [3] [%]","activity change, negative = inhibition [4]","activity change, negative = inhibition [5]"
O=C(Cn1nc2n(Cc3ccc(F)cc3)c(=O)c3ccccc3n2c1=O)Nc1cc(F)ccc1F,1.05,2.88%,1.95,-0.344%,0.864%
COc1ccc(NC(=O)C2C[C@H](C)CC[C@H]2C(C)C)cc1 (stereo partly drawn),-1.85,-5.99%,10.6,-12.5%,-0.722%
CCCn1c(=O)c2ccccc2n2c(=O)n(CC(=O)Nc3ccc4c(c3)OCO4)nc12,1.39,0%,7.28,-4.8%,2.99%
Cc1cc(NC(=O)NCCN2CCC(O)(Cc3ccccc3)CC2)c2ccccc2n1,5.46,5.01%,-56.4,-13.3%,-1.02%
O=C(Nc1cccc(F)c1)N1Cc2[nH]cnc2C[C@H]1c1nc(-c2ccncc2)no1,-7.77,-3.11%,-7.21,-4.73%,-1.44%
O=C(/C=C/c1ccc(O)cc1)OC[C@]12O[C@H]1[C@@H](O)[C@@H]1C=CO[C@@H](O[C@@H]3O[C@H](CO)[C@@H](O)[C@H](O)[C@H]3O)[C@@H]12,1.82,5.12%,7.32,-7.36%,1.06%
CC1CCCC(NC(=O)C2(C)Cn3c(cc4occc43)C(=O)N2Cc2ccc3c(c2)OCO3)C1C (stereo not drawn),-11.1,2.79%,-10.7,-14.7%,-8.69%
COc1ccc(CNC(=O)[C@@H]2Cc3nc[nH]c3CN2C(=O)NC(C)C)cc1,-4.54,-0.556%,-1.39,-5.88%,10.4%
CN1CCC(OC2CCN(C(=O)COc3ccc(Cl)cc3)CC2)CC1,-3.42,-3.71%,-15.9,-6.88%,-2.34%
Cc1cc(C)cc(N2C(=O)c3ccc(-c4ccco4)n3CC2(C)C(=O)NC2CCCC2)c1 (stereo not drawn),-22.1,-5.1%,4.4,-8.36%,-6.48%
COc1cccc(CC(=O)N2CCCC3(C2)NC(=O)N(Cc2cccc(Cl)c2)C3=O)c1 (stereo not drawn),-3.6,-7.71%,-1.24,-11.9%,4.43%
COc1ccc(OC)c2c1cc1n2CC(C)(C(=O)NC2CCCCC2)N(Cc2ccco2)C1=O (stereo not drawn),-12,1.19%,-2.99,-13.7%,-17%
N[C@H]1CONC1=O,2.19,14.8%,2.83,-2.12%,9.24%
CCCc1ccc(OCC(=O)N(Cc2nc(-c3cccnc3)no2)C(C)C)cc1,-4.29,3.59%,8.02,-21.5%,-3.72%
O=C(/C=C/c1ccc(O)cc1)N[C@@H](Cc1ccc(O)cc1)C(=O)O,2.11,5.44%,6.88,-7.94%,3.3%
C=C[C@@](C)(O)CC[C@@H]1[C@@]2(C)CCCC(C)(C)[C@@H]2CC[C@@]1(C)O,–,2.98% and 10.5%,–,-26.6% and -12.1%,-1.12% and 3.38%
CCCn1c(=O)c2ccccc2n2c(SCc3ccccc3Cl)nnc12,-12.5,4.32%,-5.73,-14.7%,2.22%
CCC(C)/C=C(C)/C=C/C1=CC2=CC(=O)C(C)(O)C(OC(C)=O)C2CO1 (stereo not drawn),-3,-1.44%,3.73,-11.4%,-8.96%
C=CC(C)(O)CC/C=C(/C)COC(=O)C(C)C1CCC(C)(C=C)O1 (stereo not drawn),2.13,-7.4%,2.2,-19.4%,-1.01%

Structure (SMILES),"activity change, negative = inhibition [1] [%]","activity change, negative = inhibition [2]","activity change, negative = inhibition [3] [%]","activity change, negative = inhibition [4]","activity change, negative = inhibition [5]"
CCn1c(CC2CCN(Cc3ccccc3C#N)CC2)nn(C)c1=O,-4.58,-4.53%,-2.32,-4.79%,0.089%
Cc1ccc(C)c(Cn2nc3n(CC(C)C)c(=O)c4ccc(C(=O)NC5CCCC5)cc4n3c2=O)c1,5.8,1.97%,10.9,6.74%,8.53%
CC1CCC(NC(=O)C2(C)Cn3c(nc4ccccc43)C(=O)N2Cc2cccs2)CC1 (stereo not drawn),-9.89,-9.93%,1.09,-17.8%,-8.3%
CC/C=C\[C@H](O)[C@H](O)C1=C(C)C(=O)[C@]2(O1)C(=O)N[C@@](O)(C(=O)c1ccccc1)[C@@H]2O,-0.212,3.57%,3.18,-9.18%,3.08%
CC(C)[C@@](O)(c1ccc2cc(OC(F)F)c(OC(F)F)cc2c1)c1cn[nH]n1,-2.99,8.66%,9.55,-3.91%,7.84%
Cc1ccc(Cn2c(=O)c3ccc(C(=O)NC(C)C)cc3n3c(=O)n(CC(N)=O)nc23)cc1,2.3,4.74%,8.31,-0.421%,4.19%
CN1C[C@@H](NC(=O)NC2CCCCC2)C[C@H]1c1nc(-c2cnccn2)no1,-3.88,-5.53%,-1.06,-6.09%,-6.05%
CCCn1c(=O)c2ccc(C(=O)NC3CCCCC3)cc2n2c(SCC(=O)NC(C)C)nnc12,10.2,1.78%,12.4,10.4%,7.36%
CC(C)n1c(=O)c2ccc(C(=O)NC3CCCCC3)cc2n2c(=O)n(CC(=O)NC(C)(C)C)nc12,-4.24,0.249%,-2.25,-4.3%,-2.93%
CC1(C(=O)NCc2ccccc2)Cn2c(cc3ccccc32)C(=O)N1Cc1cccc(Cl)c1 (stereo not drawn),-3.39,-1.34%,-2.92,-10.6%,-3.6%
COc1ccc(NC(=O)c2nc3sccn3c2-c2cccc(OC)c2)cc1,-11.3,-5.87%,-4.15,-19%,5.72%
COCC1OC(OC(C)(C)C2CCC3(C)C=C(C4CCC5C4(C)CC(O)C4OC(C(C)(C)O)CCC45C)CCC3O2)C(NC(C)=O)C(O)C1O (stereo not drawn),-0.533,7.22%,-7.59,-5.61%,-2.06%
CCOc1ccc(NC(=O)N2Cc3c(sc4c3CCCC4)-n3cccc3C2c2ccc(F)cc2)cc1 (stereo not drawn),0.404,1.09%,7.16,2.13%,9.01%
Cc1cccc(CN2C(=O)c3ccc(-c4ccccc4)n3CC2(C)C(=O)NC2CCC(C)CC2)c1 (stereo not drawn),4.66,0%,-3.25,-1.82%,1.37%
CC(=O)N[C@H](Cc1c[nH]c2ccccc12)C(=O)OCc1cc(C(F)(F)F)cc(C(F)(F)F)c1,1.51,9.99%,11.5,-5.94%,9.22%
OC[C@@]1(O)CO[C@@H](OC[C@H]2O[C@@H](Oc3ccccc3)[C@H](O)[C@@H](O)[C@@H]2O)[C@@H]1O,-10.1,3.09%,4.15,-7.66%,5.13%
CN1CCN(c2ccc(-c3cccc(CN4CCOCC4)c3)cc2NC(=O)c2c[nH]c(=O)cc2C(F)(F)F)CC1,1.75,1.65%,0.835,-8.4%,5.16%
CC(C)(C)c1cc(NC(=O)Nc2ccc(-c3cn4c(n3)sc3cc(OCCN5CCOCC5)ccc34)cc2)no1,5.2,19.3%,11.6,3.28%,6.99%
